± gives the standard deviation of the averaged measurements. Some of the results follow.
System: PfAP2-I AP2 domain 3 (GST-tagged)
Assay: gcPBM binding intensity (ln(normalized median fluorescence intensity)); higher = stronger DNA binding
Outline: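 GST-tagged P. falciparum DNA-binding domains, expressed in E. coli (about 25 μg on average), were applied for 1 h to an Agilent 4 × 180k array of primer-extended double-stranded 36-bp intergenic genomic probes plus negative controls. The binding buffer was 1× PBS with 1% milk, 0.2 mg/ml BSA, 0.5% salmon testes DNA and 0.03% Triton X-100. Bound protein was detected with Alexa488 anti-GST antibody and scanned at 488 nm. Binding intensity is the highest Masliner-normalised natural-log median intensity across replicate spots of either probe orientation.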

Sequence	gcPBM binding intensity (ln)
ACAAATATGAGAAATTGTACATATAATAAAATAGTA [XGTACX_site2573]	7.64 ± 0.5
ATATTAGTCGAATGATGTACACACATACAAAACATT [XGTACX_site8613]	7.95 ± 0.47
ATCAAATTTGGACATGCATGTGTGTGTAAAACCATG [TGCATGCA_site309]	8.52 ± 0.41
TTCTTCAATAATAAGTGTACATATGCATACATTATA [XGTACX_site1502]	8.12 ± 0.33
AATTAAAAAATTTATGCACACTTTAAAAAAAAAAAA [CACACA_site5962]	10.1 ± 0.46
ATAATAAAATAAGAAGCACACAAATATTATATATAA [CACACA_site9319]	7.94 ± 0.52
GATATGATATGATATGCATGTAACAAATTTTTTTAA [TGCATGCA_site268]	8.37 ± 0.85
AAAAAAAAATATATATATATATATATATTTATGTAT [GTGCAC_negctrl_site483]	7.92 ± 0.5
AAAAAAAATAAAAATAGTACTCAAAAAATTATGAAT [XGTACX_site3073]	7.58 ± 0.43
ATATTAATTTCTTATGCATGTTCTACCAAATTGTAT [TGCATGCA_site38]	8.16 ± 0.93
TTATTTATTTTTATATGTACACAAAAAAAAAAAAAA [XGTACX_site1459]	8.29 ± 0.35
AATATATATAACGTTGGTACACAAAAATTATTAAAT [XGTACX_site8572]	7.97 ± 0.61
TTTTTTTTTTTTTTAACACACATATATATATTTTTC [CACACA_site1922]	8.19 ± 0.35
CCTCATCCACTATGCACACAAAAAAGAAATACACTA [CACACA_site3422]	9.295 ± 0.092
TTCTCAAATATAATAAAATTATAAAGTGACCTAACT [GTGCAC_negctrl_site493]	7.53 ± 0.47
TAATGGATTATACGTGCACACATATATACAAATAAA [CACACA_site8116]	10.97 ± 0.035
TTTGGAATATAATATTGTACATATTATATATATATA [XGTACX_site3187]	9.01 ± 0.28
TTTTTTTTTAAATATACACACACATTTATACATATA [CACACA_site9122]	7.85 ± 0.62
AATGTATTTATTTTTTGTACATATCGTGTGTGTATT [XGTACX_site1009]	7.95 ± 0.35
TTCTATTATGTGACTCAATTCTTCATGGGTGTATAA [TGCATGCA_negctrl_site140]	7.68 ± 0.38
GGAAAGACATTACACAGTACCCAGGAAATCTACGGA [XGTACX_site2002]	7.61 ± 0.69
TAATATTTATTCTATTGTACATAAAATATATATATA [XGTACX_site7132]	8.73 ± 0.35

Sequence	gcPBM binding intensity (ln)
ATAAATAAAAAACACACACACACACCCAAAAAAAAA [CACACA_site2624]	8.33 ± 0.45
ATTATATATGTATAAATATGCTATATATATATATAT [GTGCAC_negctrl_site430]	9.4 ± 0.58
TCAACATTTAAAAATAGTACTCATAAACCTTTCGAA [XGTACX_site4111]	7.42 ± 0.46
TATACATATGTATGCACACATACATACACATAGAAT [CACACA_site3480]	8.8 ± 0.13
TATATTATTTAAAAAGTGCAGTTACAAGATGAACCT [GTGCAC_site9641]	9.27 ± 0.13
ATTGATTTTTAATATACACACATAAGGACCACAAAA [CACACA_site4344]	8.48 ± 0.26
AGAGAATATTTCCACACATGCAAATGTTATATGTAA [TGCATGCA_site282]	10.4 ± 0.7
AATTATATTAATTCTTCATTACATTTTAAAATATTA [XGTACX_negctrl_site510]	7.64 ± 0.69
AATACGCATTTTAGTACACACTTAAAAAGTTATTTT [CACACA_site7401]	8.12 ± 0.3
TTATAATATAAAAATAAATAAATAAATAAATAAATA [CACACA_negctrl_site1587]	8.21 ± 0.84
TGCTATTATTTATGTACACACCAATTTATTTATAAT [CACACA_site6029]	8.39 ± 0.24
TTCGTTATATTTTGATGTACTGATTCATATATATAT [XGTACX_site1835]	8.96 ± 0.085
TATATATAATATACATGTACAAATGTATTTAAAAAT [XGTACX_site6090]	7.66 ± 0.56
TCATATTTGCCTTTTTATTTAGAACACAAAAAAAAA [CACACA_negctrl_site1152]	7.91 ± 0.24
CAAAAAAAGAAAGCTACACACATTTATGTGCTATAT [CACACA_site2777]	8.26 ± 0.28
AGAAAATACACGCATACACACACACCCACCCACATA [CACACA_site8115]	8.15 ± 0.58
ATTCGGATATATATCACACATAACTTTAATAATATA [CACACA_site5720]	7.76 ± 0.59
ATTATAATAGTTAAATGTACACACTAACTACATGGA [XGTACX_site6918]	7.82 ± 0.48
AATTAAAAATTCAAGTGTACTTTTATATTATTATAC [XGTACX_site4106]	7.91 ± 0.23
TAAATAGCCAAACGCACACCCACAAAAAAAAAAAAA [CACACA_site1554]	8.83 ± 0.17
AAAATAACGAGTCAAACACACATATATATATATATA [CACACA_site2039]	9.28 ± 0.17
AGCATAAACAATTTTTGAAAAAATATACACTCATAG [CACACA_negctrl_site890]	7.76 ± 0.6

Sequence	gcPBM binding intensity (ln)
TATATATATATATACACACACACAAAAAAAAAAAAA [CACACA_site1505]	9.58 ± 0.35
TCTACAAGGCTTGATCGTACAATTTGAATGTATTTG [XGTACX_site7698]	7.3 ± 0.49
CTCAACATATACGTAACACACATATATATATATATA [CACACA_site3838]	9.28 ± 0.53
TATGCAAGGAACCACACACACACACCCAAATGTATA [CACACA_site750]	7.75 ± 0.56
AGATTATATATATGTATATATGTATATATTTATATA [CACACA_negctrl_site1797]	7.25 ± 0.23
TATCTCTCTTTCTGCTGTACATAAAAATTATATAAT [XGTACX_site5961]	8.41 ± 0.35
AACATATTTTTAAATACACACACATAAAAAAAAAAA [CACACA_site8279]	8.06 ± 0.58
GTTTGGTGGTGTTTTGGTACGTACGGGGGTGTATGT [XGTACX_site1211]	9.78 ± 0.057
TCTTTGTACTTTCACATGTACACCCAAATGGAAATT [CACACA_negctrl_site1442]	8.5 ± 0.18
AAATAAATCTTATGCACACAAATAATTAATGAAACA [CACACA_site5011]	9.18 ± 0.17
ATATTTATGGAATATACACACATGTATAATTACATA [CACACA_site7045]	7.63 ± 0.52
AGGACTAATATTTGAACACACATATAATAAATACAT [CACACA_site6068]	7.67 ± 0.81
AAGACCATATGAATAATGCACACGTTTTAAAATATT [CACACA_site2323]	10.5 ± 0.52
TTTCCATTTTCTCTATGTACATAAAAATGAGATAAA [XGTACX_site5689]	8.03 ± 0.26
CACACGCACGGACACACACACAAAAAAAAAAAGAAA [CACACA_site6378]	8.455 ± 0.035
ATATGTATTTATGTATTTATGTATTTTTATATTTTT [CACACA_negctrl_site595]	7.57 ± 0.64
AAAAAAAAAAAACACACACACACATTCAATATAAAA [CACACA_site40]	7.93 ± 0.27
TAAATGTTAAAATTCACACAAATATGTGCGGAATAT [CACACA_site5055]	8.41 ± 0.3
GGAATTTTTATTCGAAGTACTGTTGTGAGTAATAAA [XGTACX_site8599]	7.89 ± 0.5
ACCCATTTGATAATAATGCACACCACATATATTTAT [CACACA_site3061]	11 ± 0.63
TGCAAGGAACAACACACACACACATAAATGTATATA [CACACA_site8149]	7.78 ± 0.36
ATATATAATATATACACACACATGTATATATAAATA [CACACA_site1968]	7.68 ± 0.43

Sequence	gcPBM binding intensity (ln)
TTTGACTAAATTAAATATTAAAGTATGGATTATTCT [CACACA_negctrl_site833]	7.37 ± 0.69
ATATTATTTTATGCTACACACATTTTCTCTTATAAA [CACACA_site943]	8.32 ± 0.26
TTCAAACATATTAATTGTACATACAACAAAACCATG [XGTACX_site5149]	7.75 ± 0.42
AATATATTTTAGAGTTTTATATATTTTATGCATATA [GTGCAC_negctrl_site710]	7.67 ± 0.51
TGGAAAATAAAGTACGCACACAAAAATTCTCTTCAT [CACACA_site2327]	8.13 ± 0.38
TACAGATATTTTATTTCACACATTTTATCATTTTCT [CACACA_site5701]	7.79 ± 0.5
TTCAAAAAAGGAAAGTTGCACTTGATACGCTTATTA [GTGCAC_site9411]	8.23 ± 0.57
ATAAGTAATATAATATGTACATATATATATATATAT [XGTACX_site3818]	9.3 ± 0.52
AAGAAATAAATACATACACACATATATATATATATA [CACACA_site3362]	9.38 ± 0.38
AGAATAATTTTATCGGTACACACTGTATGCATAATA [CACACA_site374]	8.27 ± 0.5
ATGCAAAATAAAGAAGCACACAAAAATGAAATATAT [CACACA_site9217]	8.23 ± 0.91
GGAAATTTCAATATTTGTACATATATATATATATAT [XGTACX_site3222]	9.56 ± 0.6
TATATATTGTTATAATGTACATAATATTTTATCTGC [XGTACX_site4983]	7.66 ± 0.53
TAAAAGTTCACCTGTACACACATATATATATGTACA [CACACA_site1707]	8 ± 0.38
TTTTTTATTTTTTGTTATATTTATAATAATTTATGA [XGTACX_negctrl_site260]	7.44 ± 0.67
TACTTTACACATATTTTTAATTATTCTGAATTCAAA [GTGCAC_negctrl_site253]	7.79 ± 0.63
ATATATATATATGTAGTGCATTTTATATATAATATT	9.875 ± 0.035
TATTTATATTCATAATGTACATTCAATTATTGTTTT [XGTACX_site4191]	7.76 ± 0.52
AAATATTAAATGACAAAAAAAAAAAAAAAAGGGGTT [CACACA_negctrl_site951]	7.59 ± 0.69
TTCTTTATTTTTTCTACACACATTATATATTCAAAG [CACACA_site5866]	8.23 ± 0.61
TATTTTGAAAATAAAAGTACAAATTTTATATTTAAA [XGTACX_site3238]	7.45 ± 0.55
TATAATATATTTTAATGTACGTACATCCCGATTAAT [XGTACX_site7651]	8.28 ± 0.13

— the supplement of paper PMC11417369
